# Experimental data reported in PubChem BioAssay AID445 (National Center for Advancing Translational Sciences (NCATS), 2006).
# In all, about 110,000 compounds went through this assay and about 40 (0.04%) were called active. This list was built around the results that the source calls inconclusive (neither active nor inactive); the mix of calls is not that of the screen. Calls follow the shape of the dose curve; as a rule, active = well fitted curve in the direction sought with a large enough effect in the signal ratio (not every such curve was filed as active); inconclusive = small, poorly fitted or top-dose-only effect, or a change in a side signal; inactive = flat fitted curve, though single readings scatter; the % refers to the signal ratio. Where the call is inconclusive, the potency comes from a doubtful curve fit.
# Assay: IkB Signaling;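 as to IkBa stabilization activation: 0% = basal untreated cells and 100% = reference inhibitor full response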
# Conditions: ABC-DLBCL IkBa-CBG/CBR dual luciferase ratio (green luciferase fused to IkBa over red control in OCI-Ly3 lymphoma cells), 4 h; IkBa stabilization activation: at 57.1 µM (top of the series), scaled: untreated 0%, proteasome inhibitor 100% unless noted
# Summary of the method: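 Curves were fitted separately to fusion (green), unfused (red) and ratio luminescence, then classed by r2, magnitude and activity. Cells: OCI-Ly3, 4 h compound plus doxycycline at 37C; 10 uM MG-132 defined full response.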
# Potency is read from the fitted curve at half-maximal effect.
Structure (SMILES),IkBa stabilization activation,Potency
COc1cc(NC(=O)CSc2nc3ccccc3c(=O)n2C)ccc1NC(=O)c1ccco1,inconclusive: 6.09% [signal inhibitor],–
Cc1ccc(OCC(=O)Nc2nnc(SCc3cc(=O)n4cccc(C)c4n3)s2)cc1,inconclusive: 1.5% [signal inhibitor],–
O=C(NCc1ccccc1)NC1(C(=O)Nc2ccc3c(c2)OCCO3)CCCCC1,inactive,–
Cc1cc(C(=O)CSc2nnc(-c3cccs3)o2)c(C)n1-c1ccccc1,inconclusive: 3.65% [signal inhibitor],–
O=C(Cn1c(=O)n(Cc2ccccc2)c(=O)c2sc3ccccc3c21)Nc1ccc(F)cc1,inconclusive: 7.59% [signal inhibitor],–
COc1ccc(C(C(O)C(=O)c2c[nH]c3ccccc23)N2CCN(c3ccc(OC)cc3)CC2)cc1 (stereo not given),inconclusive: 8.95% [signal inhibitor],–
CCCCN(CC)CCCNC(=O)c1cc2c(=O)oc3ccc(C)cc3c2s1,inconclusive: -0.0853% [signal inhibitor],–
CCOC(=O)c1cc(-c2ccccc2)n(CC(=O)NCc2ccccc2)c1C,inactive,–
Cc1nnc(NC(=O)CCC(=O)N2CCC(C)CC2)s1,–,"inconclusive: 25.1 µM [rising, partial curve]"
O=C(COc1ccc(Cl)cc1)NCC(c1cccs1)S(=O)(=O)c1ccc(F)cc1 (stereo not given),inconclusive: 5.06%,–
Cc1csc(NC(=O)CSCC(=O)Nc2ccccc2)n1,inactive,–
N#Cc1c(N)nc(SC2CCCCC2=O)c(C#N)c1-c1ccco1 (stereo not given),inconclusive: 1.52% [signal inhibitor],–
N=C(N=C(N)N)N1CCOCC1,"inconclusive: 6.75% [signal inhibitor] [at 11.4 µM, scaled: untreated 0%, proteasome inhibitor 100%]",–
CCc1cccc(NC(=O)Cn2nc(-c3cc(C)ccc3C)ccc2=O)c1,inconclusive: 1.38% [signal inhibitor],–
Cc1ccc(CN2C(=O)C3(c4ccccc42)N(c2cccc(C(F)(F)F)c2)C(=O)CS3(=O)=O)cc1 (stereo not given),inconclusive: 4.99% [signal inhibitor],–
O=c1cc(CSc2n[nH]c(-c3ccccc3)n2)[nH]c2ccccc12,inconclusive: 0.733% [signal inhibitor],–
COc1ccccc1NC(=O)CSc1oc(-c2cccs2)nc1S(=O)(=O)c1ccccc1,inconclusive: 4.02% [signal inhibitor],–
Cc1nc2sc(C(c3ccco3)N3CCN(c4ccccc4)CC3)c(O)n2n1 (stereo not given),–,"inconclusive: 15.8 µM [signal inhibitor, partial curve]"
CC(Oc1ccccc1Cl)C(=O)N1CCN(CCc2ccccn2)CC1 (stereo not given),inactive,–
O=C(CN1C(=O)COc2ccc(S(=O)(=O)N3CCOCC3)cc21)N1CCN(c2ccc(F)cc2)CC1,inconclusive: 4.95% [signal inhibitor],–
Cc1ccccc1OCC(=O)Nc1ccc(N2CCN(C(=O)C(C)C)CC2)c(Cl)c1,inconclusive: -1.36% [signal inhibitor],–
CCSC1(SCC)N=C(N)C2(C#N)C(c3ccc(OC)c(OC)c3OC)C12C#N (stereo not given),–,"inconclusive: 2.51 µM [signal inhibitor, partial curve]"

Structure (SMILES),IkBa stabilization activation,Potency
CC(Sc1nc(=O)cc(N)n1CCc1ccccc1)C(=O)Nc1ccccc1C#N (stereo not given),inconclusive: -0.0426% [signal inhibitor],–
COc1ccc(Oc2ncc3nc(CCc4ccccc4)c(=O)n(C[C@H]4CCCO4)c3n2)cc1,"inactive: 0.857% [at 11.4 µM, scaled: untreated 0%, proteasome inhibitor 100%]",–
O=C(NC1CCCCC1)c1ccc2c(c1)N(Cc1ccc(Cl)cc1)C(=O)c1ccccc1S2(=O)=O,inconclusive: -0.351% [signal inhibitor],–
CCc1nn(CC(=O)N2CCN(Cc3ccc4c(c3)OCO4)CC2)c(=O)c2cc3occc3n12,inconclusive: 3.46% [signal inhibitor],–
CN(C)C=Nc1ncc2c3ccccc3n(Cc3ccccc3)c2c1C#N,inactive,–
CCOc1ccc(C(=O)Nc2cccc(OCc3cc(=O)n4cc(C)sc4n3)c2)cc1,inconclusive: 11.2% [signal inhibitor],–
CCCCOC(=O)c1cccc(NC(=O)c2cc3ccccc3o2)c1,–,"inconclusive: 12.6 µM [signal inhibitor, partial curve]"
COc1cccc(CNCCSc2nnnn2C)c1OCc1ccccc1F,inactive,–
CC(C)c1ccc(/C(C(=O)O)=C(\O)C(=O)O)cc1,"inactive: 1.17% [at 11.4 µM, scaled: untreated 0%, proteasome inhibitor 100%]",–
O=C(NCCc1ccccc1)c1ccc(CSc2nc3ccncc3n2Cc2ccc(F)cc2)cc1,inconclusive: 1.24% [signal inhibitor],–
Cc1ccc(C)c(Cn2nc(-c3cc(C)ccc3C)ccc2=O)c1,inconclusive: 0.981% [signal inhibitor],–
c1ccc(CNc2nc(-c3cccnc3)nc3ccccc23)cc1,"inactive: -1.02% [at 11.4 µM, scaled: untreated 0%, proteasome inhibitor 100%]",–
Cc1ccccc1OC(=O)CSc1nnc(-c2cccs2)o1,inactive,–
COc1cccc(N2CC(NC(=O)c3ccc(S(=O)(=O)N4CCCCC4)cc3)CC2=O)c1 (stereo not given),inactive,–
O=[N+]([O-])c1ccc(C(c2sc3nc(-c4ccco4)nn3c2O)N2CCN(c3cccc(Cl)c3)CC2)cc1 (stereo not given),inconclusive: 8.53% [signal inhibitor],–
Cc1cc(C(=O)COC(=O)C2=COCCO2)c(C)n1-c1ccc2c(c1)OCO2,inconclusive: 3.93% [signal inhibitor],–
CCOC(=O)C1CCN(C(=O)CN2c3ccc(CC)cc3-c3ccccc3S2(=O)=O)CC1,inconclusive: 2.83% [signal inhibitor],–
CCOC(=O)C1CCN(C(=O)C2CCN(S(=O)(=O)c3cc(Cl)ccc3Cl)CC2)CC1,inconclusive: 1.32% [signal inhibitor],–
CCS(=O)(=O)c1ncc(N(Cc2ccc(F)cc2)Cc2ccco2)c(C(=O)Nc2cc(C)ccc2C)n1,inconclusive: 1.39% [signal inhibitor],–
c1ccc2c(c1)NC1(CCCC1)n1c-2nc2ccccc21,inactive,–
O=C(Nc1ccc(C(=O)N2CCOCC2)cc1)Nc1cccc(Cl)c1,inactive,–
CCCn1c(NCc2ccc(N(CC)CC)cc2)nc2ccccc21,–,"inconclusive: 31.6 µM [signal inhibitor, single point]"

Structure (SMILES),IkBa stabilization activation,Potency
CCCN(CCC)C(=O)Cn1c(=O)n(-c2ccc(OC)cc2)c(=O)c2ccc(C(=O)NCc3ccc(C)cc3)cc21,inactive,–
O=C(Nc1ccon1)c1csc2c1CCCC2,inactive,–
Cc1ccc(C)c(Cn2c(C(C)O)nc3ccccc32)c1 (stereo not given),inactive,–
OC[C@@H]1O[C@@H](n2cnc3c(NCCc4ccccc4)ncnc32)[C@@H](O)[C@H]1O,inconclusive: 0.166% [signal activator],–
CC(=O)OCC(=O)[C@@]1(O)CC[C@@H]2[C@H]3CCC4=CC(=O)C=C[C@]4(C)[C@]3(F)[C@@H](O)C[C@@]21C,"inconclusive: 12.6% [signal activator] [at 25.6 µM, scaled: untreated 0%, proteasome inhibitor 100%]",–
COc1ccc2nc(N3CCC(C)CC3)c(C#N)cc2c1,inactive,–
COc1ccc(Br)cc1CNc1ccc(O)cc1,inactive,–
CC(=O)N1c2c(cc(Br)cc2S(=O)(=O)N2CCN(c3cccc(Cl)c3)CC2)CC1C (stereo not given),inconclusive: 5.05% [signal inhibitor],–
CC(C)C[C@@H](CC(=O)N[C@H](CC(=O)N[C@@H]1CCCC[C@H]1C(=O)N[C@H](CC(=O)N[C@@H](CCC(=O)O)CC(=O)O)CC(C)C)C(C)C)NC(=O)[C@@H]1CCCC[C@H]1N,inactive,–
COc1cccc(N2CCN(C(=O)c3cnn(-c4ccc(C)cc4C)c3C3CCN(C(=O)OC(C)(C)C)CC3)CC2)c1,inconclusive: 4.65% [signal inhibitor],–
Cc1ccc(C)c(N2CCN(C3=C(c4ccccc4)C(=O)c4ccccc43)CC2)c1,inconclusive: 10.3% [signal inhibitor],–
COc1ccccc1N(C(=O)c1ccco1)C(C(=O)NC1CCCC1)c1cccnc1 (stereo not given),inactive,–
CCN(Cc1ccccc1)C(=O)c1cc2c(s1)-c1c(C)cccc1OC2,inconclusive: 0.547% [signal inhibitor],–
COc1ccc(/C=N/n2cc(-c3ccccc3)nc2N)cc1,inconclusive: 11.4% [signal inhibitor],–
CCN1CCN(c2c(S(=O)(=O)c3ccc(C)c(C)c3)cnc3ccc(F)cc23)CC1,inconclusive: 0.95% [signal inhibitor],–
Cc1cccc(CNc2cc(-c3ccccc3CN(C)C)ncn2)c1,"inactive: -0.859% [at 11.4 µM, scaled: untreated 0%, proteasome inhibitor 100%]",–
Cc1nn(CC(=O)Nc2ccccc2F)c(=O)c2c(C)n(-c3ccc(Cl)cc3)nc12,inconclusive: -1.13% [signal inhibitor],–
COc1ccc(NC(=O)CSc2cc(-c3ccccc3)nc(C)n2)cc1,inconclusive: -1.89% [signal inhibitor],–
O=c1c2cnn(-c3ccc(Cl)cc3)c2ncn1Cc1cccc(C(F)(F)F)c1,inactive,–
COc1cccc(-n2nnnc2SCC(=O)Nc2cccc(C)n2)c1,inconclusive: 10.2% [signal inhibitor],–
COc1ccccc1N1CCN(C(c2ccc(Cl)cc2)c2nnnn2C(C)(C)C)CC1 (stereo not given),inconclusive: 2.96% [signal inhibitor],–
